Laboratory results taken from the supplement of paper PMC3334620.
Whole data set: some 33,000 sequences, median “E-score (-0.5 to 0.5)” near -0.012, cut for the highest 2% near 0.27. This is one part of the list.

Each sequence was assayed against T1, Vhr1 (UniProt P40522) (assay: PBM E-score (8-mer binding enrichment) (E-score (-0.5 to 0.5)); higher = stronger / more preferred TF binding; most listed sequences are background and not binding sites). Settings: protein concentration: 200 nM; construct: GST-full length.
T1 sequence: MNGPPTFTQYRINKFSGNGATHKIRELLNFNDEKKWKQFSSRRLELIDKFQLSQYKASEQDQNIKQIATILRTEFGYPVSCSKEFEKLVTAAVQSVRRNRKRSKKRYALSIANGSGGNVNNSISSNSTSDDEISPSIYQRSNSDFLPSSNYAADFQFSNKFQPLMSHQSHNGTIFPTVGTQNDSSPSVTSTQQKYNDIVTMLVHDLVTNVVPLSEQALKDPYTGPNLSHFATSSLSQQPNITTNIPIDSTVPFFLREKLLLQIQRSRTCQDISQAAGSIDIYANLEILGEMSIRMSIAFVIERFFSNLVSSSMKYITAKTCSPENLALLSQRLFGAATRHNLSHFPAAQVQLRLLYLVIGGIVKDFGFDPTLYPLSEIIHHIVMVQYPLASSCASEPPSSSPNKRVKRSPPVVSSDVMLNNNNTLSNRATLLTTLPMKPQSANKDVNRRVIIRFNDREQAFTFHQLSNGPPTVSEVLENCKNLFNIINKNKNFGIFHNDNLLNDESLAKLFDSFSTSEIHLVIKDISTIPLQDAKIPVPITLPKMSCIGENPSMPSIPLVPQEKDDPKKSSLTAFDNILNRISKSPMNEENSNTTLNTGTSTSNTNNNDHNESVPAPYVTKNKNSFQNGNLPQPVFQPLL
Summary of the method: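 Universal all-10-mer Agilent arrays, fresh or stripped once, were converted to double-stranded form by primer extension. GST-tagged yeast transcription factors from PURExpress in vitro transcription/translation, full-length or DNA-binding domain only, were applied at about 100-200 nM and detected with fluorescent anti-GST. After masliner normalisation, the Universal PBM Analysis Suite scored each ungapped eight-base word together with its reverse complement by E-score.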

Sequence | PBM E-score
ATGGTATG | 0.00124
AAATCAAG | -0.0986
ACATGACA | 0.206
ACCTAACC | -0.0255
CCAATCTC | 0.0436
AGGGGGAC | -0.0147
ACCGCTTC | -0.129
CCAGGTGA | 0.167
CTTCGTTC | -0.109
CGAGACCC | 0.135
CGTGTTCC | 0.105
GCGTCTCC | -0.0648
GAGACGAA | 0.026
ACCCAACC | 0.135
TCGGCAGA | 0.0483
AAGAACTT | -0.235
AGGTGCCA | 0.023
CTTGATGC | -0.0279
AGATGGAG | 0.0425
ATAATGAT | 0.265
GAAAAAAC | -0.236
CTTTCTCA | -0.189
ATACGGTA | 0.116
ATACCACA | 0.129
GCGGTAGC | 0.0852

Sequence | PBM E-score
GAGTAGGC | 0.00436
CACCTGGC | 0.16
TAAGTGGA | 0.0179
AGTCGCTG | 0.216
ATTCAACC | 0.124
ACAGTAAG | 0.0473
ATCTCCAA | 0.0198
CCGGAAGC | -0.0127
CGGTCTCA | -0.14
GTCCCTCA | -0.0158
AGTTAAAT | -0.159
GTCAAGCA | -0.293
ATCATCAA | 0.136
ATTCTCTC | 0.125
TCGATGAA | -0.0563
TAACTGCA | 0.0163
CTACAATA | 0.183
CGCTCGTA | 0.207
AAGTGAGA | -0.0753
GCTACAAC | -0.0177
TAGCGGGA | -0.153
TAGGGGGA | -0.225
AACTGGTA | 0.0402
TTTCAAAA | -0.305
TCAGCAGA | 0.0746

Sequence | PBM E-score
AGTACACT | 0.0149
GTTCCGAA | 0.131
AACGAGGT | 0.0193
GTGTTTTA | 0.0633
CCTCCGGA | 0.00729
CCGAGCAG | 0.044
AACACCAG | 0.0237
ATTAACCA | 0.189
GGGCATGA | -0.00514
ACGAGGCT | 0.132
CTAATGGA | -0.0784
CTATATTC | -0.109
CCCCGATC | -0.0087
CACCGCCG | 0.183
CAATATGA | 0.155
GCTAAGAC | 0.036
CTGTATCC | 0.119
CAAGCTCG | 0.0842
CCGTTGGC | -0.045
ATAAACGC | -0.197
ATACCCTA | 0.158
AATCTCTA | 0.0403
CGTTGCAA | -0.0437
GCAGGGGA | -0.0781
AGCCTGGC | 0.022

Sequence | PBM E-score
CGGAACGC | -0.0324
GTAGCCCA | 0.0388
AGTAGACC | 0.031
CACCCCTA | 0.0866
CTGCCTGC | -0.125
CGGACCTC | -0.114
GCTATAGA | -0.216
CCGGAGTC | 0.421
AGTTTAAC | -0.24
GATGCGGC | -0.0278
CGAGACTA | 0.202
CGCTTGGC | -0.0376
GCCTTTGA | -0.0374
GTAGTTAA | 0.0877
ACTTAGGA | -0.198
AGAGCTGG | 0.0564
GGGGCCAA | -0.0289
GACTGTAA | -0.0713
GGAGCCCA | -0.0712
ACCGGGAA | 0.132
GGGAGTAA | 0.0449
CTATTCAA | -0.0852
AGGGGTAC | -0.0627
GTGACACA | 0.196
AGCTTGGC | -0.278

Sequence | PBM E-score
ACTCATTG | 0.196
AGCACGCG | -0.00394
AGTAGATG | 0.0735
CAGGCCAC | 0.00274
AGCTCCGA | -0.123
CGGGCCCG | -0.047
CCGCTAAG | -0.025
CAGACGCG | -0.184
TAAACCGA | 0.0002
AGGGCCAT | -0.231
AGCCCTGC | 0.0556
GTTCGTCA | -0.0885
CGTGGGGA | 0.0323
CTAGGGCC | -0.208
CCGATCAC | 0.0847
TACGGCTA | -0.113
ATCGGTTC | 0.00243
AGCCTTCC | -0.317
CAGATGAG | 0.219
GCAGGTGA | 0.119
CTCATGTC | 0.107
AACGGCTT | -0.235
AGCCATGG | 0.281
CAGCTAAG | -0.204
CTGAAGTA | -0.0497

Sequence | PBM E-score
ACAACGTG | 0.0397
GGCTAGAC | -0.0958
CGGCAACG | -0.121
CTGCTTAA | -0.151
CCAGTTAG | 0.0464
CTGCCCAG | -0.167
CTGCAAAG | -0.179
GGGGAGCA | -0.12
AACCGGAG | 0.12
GCCGCCAC | -0.0771
CGGTAATC | 0.105
CTATCCTA | -0.155
ATGGTTAG | 0.201
CTCCACAC | 0.0336
GCAAATCC | -0.072
AGCATCCA | -0.0946
ACTCATGG | 0.317
AGGGGCTG | 0.0964
ATTTCTTC | -0.116
GCCTGTTA | -0.0838
AGATGAAG | -0.175
GGCAACCA | 0.0446
CCACCGCC | 0.163
ATTTGGCA | -0.00549
GAGACTCA | 0.36

Sequence | PBM E-score
CCATTGCA | 0.0485
CCGTAGCC | -0.0654
ACTTACTG | 0.0822
CAATTGAC | -0.0985
CTCGAACA | 0.00089
ACCGACCG | 0.0736
AGTTCTAC | -0.219
AGGGAGTC | 0.343
AAGGTCGT | -0.0909
AAAGCCTC | -0.257
GGATACCA | 0.14
GATACCGA | -0.0169
GAGAGTAC | -0.182
CTACGGAA | -0.13
AACTTGAC | 0.0407
CCCTGCAC | -0.0585
GCATTAGA | -0.0512
GCGCCGAC | 0.0249
AGTGGAGC | 0.00228
ATAAATCA | 0.194
TATGCCAA | 0.00701
CCGGTGAA | -0.076
